Experimental data taken from the supplement of paper PMC12217912.
This is one part of the list. The full chains were built here from the parent and the listed change. Values near 0.05 are background.

B1: TEV protease; numbered along this chain (parent)
chain: MGESLFKGPRDYNPISSSICHLTNESDGHTTSLYGIGFGPFIITNKHLFRRNNGTLVVQSLHGVFKVKDTTTLQQHLVDGRDMIIIRMPKDFPPFPQKLKFREPQREERICLVTTNFQTKSMSSMVSDTSCTFPSGDGIFWKHWIQTKDGQCGSPLVSTRDGFIVGIHSASNFTNTNNYFTSVPKNFMELLTNQEAQQWVSGWRLNADSVLWGGHKVFMVKPEEPFQPVKEATQL

Variants of: B1
Test: raw area under fraction-flipped curve 0-4 h after induction (AUC4h, not background-subtracted), DNA-recorder readout of cleavage of the substrate (dimensionless); higher = more cleavage of the substrate by the protease variant
Conditions: temperature: 34 °C; time window: 0-4 h after rhamnose induction
Protocol: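 In vivo DNA recorder in E. coli TOP10(DE3) ΔrhaA at 34 °C. Each TEVp single-site mutant (parent TEVp 0) is paired with a single-site variant of the 7-mer TEVs (canonical ENLYFQ|S). The substrate sits between flexible linkers in a Bxb1-sfGFP-TEVs-SsrA fusion, so cleavage stabilises Bxb1 and speeds flipping of a recombination array, read by NGS. The value is the raw area under the fraction-flipped curve over 0-4 h after rhamnose induction (AUC4h), with ≥20 reads per time point. It is not background-subtracted; inactive controls average about 0.047.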
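Also: Bxb1 expression induced with 0.2% (w/v) L-rhamnose at OD600 near 0.5, cultures sampled hourly, flipped fraction per protease–substrate barcode pair counted by paired-end Illumina sequencing.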

Variant	area with substrate ENLYFCS	area with substrate ENLYFDS	area with substrate ENLYFES	area with substrate ENLYFFS	area with substrate ENLYFHS	area with substrate ENLYFIS	area with substrate ENLYFKS	area with substrate ENLYFMS	area with substrate ENLYFNS	area with substrate ENLYFRS	area with substrate ENLYFSS	area with substrate ENLYFTS	area with substrate ENLYFVS	area with substrate ENLYFWS	area with substrate ENLYFYS	area with substrate ENLYFGS	area with substrate ENLYFLS	area with substrate ENLYFPS
F133E	0.0413	0.063	0.0614	0.0631	0.0646	0.0393	0.0675	0.0605	0.0734	0.0584	0.079	0.044	0.0654	0.0578	0.0591	–	–	–
F133N	0.0544	–	–	0.0702	–	0.0563	–	0.0773	0.058	–	–	0.0601	–	–	–	0.0698	0.0764	0.0707
I139A	0.075	0.0682	0.0661	–	–	0.052	0.059	0.073	0.0634	0.0539	0.0403	0.0488	0.0562	0.0427	0.0636	0.0545	–	0.0533
K142S	0.0612	–	0.0573	0.0768	–	0.0591	0.0575	–	0.0685	0.067	0.073	0.0614	0.0556	0.0676	0.0607	–	–	0.0601
H143R	0.0619	–	0.0717	0.0566	0.0401	0.0586	0.0494	0.06	0.0557	0.0549	0.0598	–	0.026	0.0601	0.0608	0.0622	0.0507	0.0578
V157A	0.103	0.0588	0.0524	0.0694	0.0535	0.067	0.0644	0.0604	0.0605	–	0.0542	–	–	0.0767	0.051	0.0665	0.0467	0.0708
D161K	0.0465	0.0516	0.0745	0.0691	–	0.0533	–	0.0566	0.0536	0.059	0.0543	0.0529	0.0514	0.0575	0.0389	0.0435	0.0414	0.0582
F163R	0.0685	0.0447	–	0.14	–	0.0512	0.062	0.0737	–	0.0374	0.0645	0.0745	–	–	–	–	0.0557	0.0684
F163V	0.0423	0.054	–	0.0315	0.07	0.0593	–	0.0616	0.0931	0.0765	0.0612	–	–	0.0658	–	0.0643	0.0551	–
N175F	0.0564	0.0353	0.083	–	0.0717	0.0499	–	0.0718	0.0617	0.0618	0.0596	0.0588	–	0.0329	–	0.0802	0.0588	0.0544
T176Y	0.0685	–	0.0517	0.0709	–	0.0541	–	0.0579	0.0582	0.0524	0.051	0.0538	–	0.0618	–	0.0609	0.0592	0.06
T181M	0.0688	0.056	0.064	0.0695	–	0.0433	0.0556	0.0606	0.0584	–	0.0511	0.0508	–	0.062	0.0648	0.0615	0.0834	0.0463
K185T	0.0405	0.0684	0.0536	0.0635	0.046	0.0601	0.0651	0.0527	–	–	–	0.0605	–	0.0604	0.0661	–	0.0422	0.0604
